Measured values reported in PubChem BioAssay AID1461 (National Center for Advancing Translational Sciences (NCATS), 2008).
Screen size: about 220,000 compounds; about 2,300 (1%) were called active. The shares of active, inactive and inconclusive entries below differ from those in the screen. Calls come from the whole dose curve; as a rule, active = well fitted inhibition curve with a large enough effect; inconclusive = small, poorly fitted or top-dose-only effect, or effect the other way; inactive = no such curve, though single readings can be large or run the other way. No potency is given beside an inconclusive call; the fits are too rough.

Each compound was assayed against Neuropeptide S receptor (Homo sapiens) (UniProt Q6W5P4) (assay: qHTS Assay for Antagonists of the Neuropeptide S Receptor: cAMP Signal Transduction). Conditions: CHO-NPSR cells, cAMP TR-FRET, antagonist mode; activity change, negative = inhibition: at 38.3 µM (top of the series) unless noted.
Chain of UniProt Q6W5P4 (Q6W5P4 whole entry, looked up): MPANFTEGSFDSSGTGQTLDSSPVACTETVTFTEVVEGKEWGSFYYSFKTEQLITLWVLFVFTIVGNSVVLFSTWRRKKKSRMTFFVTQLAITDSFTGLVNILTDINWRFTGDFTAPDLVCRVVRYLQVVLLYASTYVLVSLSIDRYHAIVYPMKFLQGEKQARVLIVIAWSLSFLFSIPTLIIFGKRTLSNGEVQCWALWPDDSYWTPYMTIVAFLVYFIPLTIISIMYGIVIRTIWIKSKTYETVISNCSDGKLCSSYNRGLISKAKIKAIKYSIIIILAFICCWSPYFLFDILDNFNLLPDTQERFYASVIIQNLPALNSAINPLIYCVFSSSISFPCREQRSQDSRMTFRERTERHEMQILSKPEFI
% is set by controls: 0 for no effect and ±100 for the full control effect; potency is the fitted concentration of half-maximal effect; tags give direction and shape of the fitted curve.
Note: nearly all actives have a fitted effect of over 50% in size.

Compound | Potency | activity change, negative = inhibition
CCOC(=O)c1c(-c2ccc(Cl)cc2)csc1NC(=O)CNCc1ccco1 | active: 10 µM | 
COc1cc(OC)c(S(=O)(=O)NC(C)C)cc1C(=O)O | inconclusive [activator, single point] | 
CCN1Cc2c(/C=C/c3ccccc3)nc3ccc(OC)cc3c2N(c2cccc(Cl)c2)C1 | inconclusive [activator, partial curve] | 
O=C(CN1C(=O)CCC1=O)Nc1nc(-c2ccccn2)cs1 | inactive | 
CCN(c1ccccc1)c1nc(C#N)nc(N(CC)c2ccccc2)n1 | inconclusive [inhibitor, single point] | 
Cc1nn2c(NCCOCCO)c3c(nc2c1-c1ccccc1)CCCC3 | inactive | 
CC1=NOC(=O)/C1=C\c1ccc(-c2ccc(Br)cc2C(=O)O)o1 | inactive | 
CN(C)C(=O)c1cn(-c2ccc(Cl)cc2)c(=O)c2ccccc12 | inactive | 
CCN(CC)S(=O)(=O)c1ccc(-c2nnc(SCc3nnc(-c4ccccc4)o3)o2)cc1 | inconclusive [inhibitor, single point] | 
CC(C)(C)c1ccc(C(=O)Nc2ccc(S(N)(=O)=O)cc2)cc1 | inconclusive [activator, single point] | 
COC(=O)c1sc(SC)c(-c2ccon2)c1C | inactive | 
COCCCNC(=O)c1c(NC(=O)c2cccs2)sc2c1CCCC2 | inconclusive [inhibitor, single point] | 
Cc1ccc(Oc2nnc(-c3ccccc3)c3ccccc23)cc1 | inconclusive [inhibitor, partial curve] | 
CCOc1ccc2c(c1)C(c1ccc(C)cc1)=NNC(c1ccc(OC)cc1)=N2 | inconclusive [inhibitor, partial curve] | 
Cc1ccc(NC(=O)c2c(C(F)(F)F)nn(C)c2SCc2ccc(Cl)cc2)cc1C | inconclusive [inhibitor, partial curve] | 
CCCCCc1cc(=O)oc2c(C(CCN3CCCCC3)c3ccc(OC)cc3)c(OC)cc(OC)c12 (stereo unspecified) | inconclusive [inhibitor, single point] | 
O=C(Nc1ccccc1N1CCN(c2ccccc2)CC1)c1cccc(F)c1 | inconclusive [inhibitor, single point] | 
N=C(N)SCc1cn(-c2ccccc2)nc1-c1ccc(Br)cc1 | inconclusive [inhibitor, single point] | 
O=C(CSc1ccc(Cl)cc1)N1CCN(c2ccc(Cl)cc2[N+](=O)[O-])CC1 | inconclusive [inhibitor, partial curve] | 
Cn1c(SCC(=O)Nc2cccc(F)c2)nnc1-c1cc2ccccc2o1 | inconclusive [inhibitor, single point] | 
Cc1ccc(-n2nnc3c(=O)n(Cc4cc(C)ccc4C)cnc32)cc1 | inactive | 
O=C(C1CCCN(S(=O)(=O)c2cccc3nonc23)C1)N1CCC(Cc2ccccc2)CC1 (stereo unspecified) | inconclusive [inhibitor, single point] | 
CCCCC(CCC(=O)O)(C(=O)OCC)c1csc(Nc2ccc(OCC)cc2)n1 (stereo unspecified) | inconclusive [inhibitor, single point] | 
CCCCc1ccc(N/C(N)=N/c2nc(C)cc(C)n2)cc1 |  | inactive: 18.2% [at 7.67 µM]

Compound | Potency | activity change, negative = inhibition
Cc1noc(C)c1C(=O)OCC(=O)c1cc(C)n(Cc2ccccc2Cl)c1C | inconclusive [inhibitor, single point] | 
COC(=O)c1ccccc1NC(=S)NC(=O)c1ccccc1 | inactive | 
COc1ccc(C(=O)N/N=C2/SCC(=O)N2Cc2ccc3c(c2)OCO3)cc1OC | inactive | 
Cc1cc(N2CCN(C(=O)c3ccco3)CC2)n2nc(-c3cccc(F)c3)cc2n1 | inconclusive [inhibitor, partial curve, poor fit] | 
Cc1ccc(S(=O)(=O)n2c(CN3CCCC(C)C3)nc3ccccc32)cc1 (stereo unspecified) | inconclusive [inhibitor, single point] | 
COc1ccc(OC)c(NC(=O)c2cc3oc4ccccc4c3cc2O)c1 | inconclusive [activator, single point] | 
COc1cc(/C=C2\SC(=Nc3ccccc3)N(Cc3ccco3)C2=O)ccc1OC(C)C(=O)O (stereo unspecified) | inconclusive [inhibitor, single point] | 
CCOC(=O)c1cnc(-n2nc(C)cc2C)nc1Nc1ccc(C)cc1 | active: 1.26 µM | 
CN(C)CC(=O)N1c2ccccc2CCc2ccc(NC(=O)c3ccc(N)cc3)cc21 | inactive | 
COc1ccccc1N=c1oc2cc(O)ccc2cc1C(=O)NCC1CCCO1 (stereo unspecified) | inconclusive [inhibitor, partial curve] | 
CCN(CC)c1ccc(NC(=S)NC(=O)c2cccs2)cc1 | inconclusive [activator, single point] | 
CCOC(=O)c1c(NC(=S)N2CCCCC2)sc2c1CCN(C(=O)OCC)C2 | inconclusive [activator, partial curve] | 
CCC(c1nnnn1Cc1ccco1)N1CCN(c2cc(Cl)ccc2C)CC1 (stereo unspecified) | inconclusive [inhibitor, partial curve] | 
S=C(Nc1ccc(Br)cc1)N1CCn2cccc2C1c1cccnc1 (stereo unspecified) | inconclusive [inhibitor, single point] | 
CCOC(=O)C(Cc1ccc(OC)c([N+](=O)[O-])c1)NC(=O)CCC(=O)Nc1ccc(OC)cc1 (stereo unspecified) | inactive | 
COc1ccc(C2=CC(c3c(C)nn(-c4ccccc4)c3Cl)n3nnnc3N2)cc1OC (stereo unspecified) | inconclusive [inhibitor, single point] | 
N=c1n(CC(=O)c2ccc(Br)s2)c2ccccc2n1Cc1ccccc1 | inconclusive [activator, single point] | 
CCc1ccc(-c2nnn(Cc3nc4ccccc4s3)n2)cc1 | inconclusive [inhibitor, partial curve] | 
CCNC(=S)N/N=C/c1cccs1 | inconclusive [inhibitor, single point] | 
Cc1ccc(N2C(=O)c3ccccc3C2C(=O)c2ccc(C)c(C)c2O)cc1 (stereo unspecified) | inconclusive [activator, full curve] | 
Cc1ccc(OCCN2CCN(c3nc(NCc4ccco4)c4ccccc4n3)CC2)cc1 | inconclusive [inhibitor, single point] | 
COc1ccc(/C=N/Nc2nc(=O)[nH]nc2C)cc1OC | inactive | 
O=C(c1cccc(Cl)c1)N1CCCC(c2ccc(Cl)cc2)=N1 | inconclusive [inhibitor, single point] | 
CC/C(C)=C1\SC(N2CCN(c3cccc(C(F)(F)F)c3)CC2)=NC1=O | inconclusive [inhibitor, partial curve, poor fit] | 

Compound | Potency | activity change, negative = inhibition
Cc1cc(C(=O)COC(=O)CC2Sc3ccccc3NC2=O)c(C)n1-c1ccc(Br)cc1 (stereo unspecified) | inactive | 
Cc1cc(C(=O)N/N=C2\CCCc3ccccc32)c(C)o1 | inactive | 
CCOc1ccc(N2C(=O)/C(=C\c3ccc(O)c(OC)c3)S(=O)(=O)C2c2cccc([N+](=O)[O-])c2)cc1 (stereo unspecified) | inactive | 
O=C(OCc1nnc(-c2ccccc2)o1)c1ccco1 | inconclusive [activator, partial curve] | 
CC(C)c1ccc(Nc2nc(CC(=O)O)cs2)cc1 | inactive | 
Cc1cccc(NCc2ccccc2O)n1 | inconclusive [activator, single point] | 
COc1ccc(CCCc2nnc(SCC(=O)Nc3cc(C)c(C)cc3Br)o2)cc1 | inconclusive [inhibitor, single point] | 
Cc1ccc2nsnc2c1S(=O)(=O)Nc1cccc2nsnc12 | inactive | 
COc1cc(NC(=O)C2CCCN2C(=O)OCc2ccccc2)cc(OC)c1 (stereo unspecified) | inconclusive [activator, single point] | 
CCOC(=O)N1CCN(Cc2ccc(F)cc2F)CC1 | inactive | 
N#CC1=C(N)Oc2c(ccc3ccccc23)C1c1ccsc1 (stereo unspecified) | inconclusive [activator, full curve] | 
Cc1ccc(C2C3=C(CCCC3=O)Nc3nc(SCC(=O)NCc4ccco4)[nH]c(=O)c32)cc1 (stereo unspecified) | inactive | 
COc1ccccc1NC(C#N)c1ccccc1OCc1ccccc1 (stereo unspecified) | inactive | 
Cc1ccccc1CS(=O)(=O)CCC(=O)N1CCN(c2ccc(N3CCOCC3)nn2)CC1 | inactive | 
Cc1ccc(-n2ncc3c(NCc4ccco4)ncnc32)c(C)c1 | inactive | 
CCCC1/C(=N/O)CC(c2ccccc2)NC1c1ccccc1 (stereo unspecified) | inactive | 
O=C(NCCC1=CCCCC1)C(c1ccccc1)c1ccccc1 | inconclusive [inhibitor, single point] | 
Cc1ccc(-c2ccc([C@H]3[C@@H]4C=CCC[C@@]4(C)C(=O)N3Cc3ccccc3)c(F)c2)cc1 | inconclusive [inhibitor, single point] | 
CCO[C@H]1OC(C(=O)NCc2nc3ccccc3[nH]2)=C[C@@H](c2ccc(C(F)(F)F)cc2)[C@@H]1CCCO | inconclusive [activator, partial curve] | 
CC[N+]1(CC)CC2CCC(C)(C1)C2(C)C (stereo unspecified) | inactive | 
C=CCn1c(SCC(=O)c2cc(C)n(C(C)COC)c2C)nc2sc(C)c(C)c2c1=O (stereo unspecified) | inconclusive [inhibitor, partial curve] | 
CC1(C)Cc2c(C#N)c(NCCN3CCOCC3)nc(-c3ccco3)c2CO1 | inconclusive [inhibitor, single point] | 
CCOC(=O)C1=C(CC)Nc2ccccc2N=C1NC(=O)Nc1ccc(Cl)c(Cl)c1 | inconclusive [inhibitor, single point] | 
